A lower IC50 marks a more sensitive line; a limit (>, <) means that the fit lies beyond the doses tested. AUC, from the same fit, is the share of area under the viability curve across the 256-fold dose range; values near 1 show little effect. A top dose marked as inferred is not printed in the source and was worked back from the curve model.

Compound in the first assay: O=C1NC(=O)c2c1c(-c1ccccc1Cl)cc1[nH]c3ccc(O)cc3c21 [Wee1 inhibitor 681640]
In words: Viability of human cancer cell lines after 72 h of drug (GDSC screen). As to conditions: top dose 2 µM; top dose inferred. As for the experimental part:
(§1)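 Human cancer cell lines in 384-well plates, medium with 10% serum, drug for 72 h over a 256-fold dose range (nine 2-fold or five 4-fold steps up to the top dose). Adherent lines were fixed and stained with the nucleic acid dye Syto60, suspension lines read with resazurin; signal relative to control wells, capped at 0 and 100%. One two-parameter sigmoid per drug and line, fitted in a mixed model over all curves with the slope shared within a line.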
Consider “LC4-1 (lymphoblastic leukaemia, suspension)”, for which the AUC stood at 0.98 and the half-inhibitory concentration (IC50) (usually the concentration that inhibits the measured activity by half) was more than 2 µM.

In the case of “LOUCY (T-cell lymphoblastic leukaemia, suspension)”, the AUC amounted to 0.924 and the IC50 is more than 2 µM.

LS-411N (large intestine, adherent): the AUC stood at 0.963 and the half-maximal inhibitory concentration (IC50) is more than 2 µM.

With “LU-134-A (small cell lung carcinoma, suspension)”, the AUC is 0.985 and the IC50 is more than 2 µM.

In the case of “LU-139 (small cell lung carcinoma, suspension)”, the AUC came to 0.897 and the IC50 is more than 2 µM.

“LU-165 (small cell lung carcinoma, suspension)”: the AUC came out at 0.985 and the IC50 was more than 2 µM.

Consider MC116 (B-cell lymphoma, suspension), for which the AUC turned out to be 0.999 and the IC50 was more than 2 µM.

Turning to “ME-1 (acute myeloid leukaemia, suspension)”, the AUC worked out at 0.982 and the IC50 is more than 2 µM.

Take “MEG-01 (chronic myeloid leukaemia, suspension)”: the AUC amounted to 0.939 and the IC50 was more than 2 µM.

For the cell line MFH-ino (soft tissue, adherent), the AUC was 0.961 and the 50% inhibitory concentration (IC50) is more than 2 µM.

Turning to MHH-NB-11 (neuroblastoma, adherent), the AUC turned out to be 0.941 and the half-maximal inhibitory concentration (IC50) was more than 2 µM.

Consider “MHH-PREB-1 (B-cell leukaemia, suspension)”, for which the AUC came to 0.982 and the IC50 is more than 2 µM.

In the case of “ML-2 (acute myeloid leukaemia, suspension)”, the AUC is 0.986 and the half-inhibitory concentration (IC50) is more than 2 µM.

Regarding MOLP-8 (myeloma, suspension), the AUC is 0.956 and the 50% inhibitory concentration (IC50) was more than 2 µM.

With “MOLT-4 (lymphoblastic leukaemia, suspension)”, the AUC came out at 0.948 and the IC50 was more than 2 µM.

In the case of “MONO-MAC-6 (acute myeloid leukaemia, suspension)”, the AUC is 0.923 and the 50% inhibitory concentration (IC50) is more than 2 µM.

As to MRK-nu-1 (breast, suspension), the AUC stood at 0.987 and the half-inhibitory concentration (IC50) is more than 2 µM.

For “MS-1 (small cell lung carcinoma, suspension)”, the AUC came to 0.975 and the IC50 was more than 2 µM.

For NB17 (neuroblastoma, adherent), the AUC was found to be 0.948 and the IC50 is more than 2 µM.

For “NCI-H64 (small cell lung carcinoma, suspension)”, the AUC is 0.98 and the half-maximal inhibitory concentration (IC50) was more than 2 µM.

As for “NCI-H69 (small cell lung carcinoma, suspension)”, the AUC is 0.982 and the 50% inhibitory concentration (IC50) was more than 2 µM.

Compound in a further assay: COc1cc(-c2nn([C@H]3CC[C@H](N4CCN(C(C)=O)CC4)CC3)c3ncnc(N)c23)ccc1NC(=O)c1cc2ccccc2n1C [A-770041]
The description is as above. As to conditions: top dose 5.12 µM; top dose inferred. How it is done:
as §1
Regarding “LAMA-84 (chronic myeloid leukaemia, suspension)”, the AUC is 0.378.

Consider “LC4-1 (lymphoblastic leukaemia, suspension)”, for which the AUC is 0.892 and the concentration for half-maximal inhibition (IC50) was more than 5.12 µM.

As to “LOUCY (T-cell lymphoblastic leukaemia, suspension)”, the AUC is 0.967 and the IC50 was more than 5.12 µM.

LS-411N (large intestine, adherent): the AUC is 0.937 and the IC50 was more than 5.12 µM.

As to “LU-134-A (small cell lung carcinoma, suspension)”, the AUC is 0.962 and the IC50 was more than 5.12 µM.

In the case of “LU-139 (small cell lung carcinoma, suspension)”, the AUC was 0.976 and the IC50 is more than 5.12 µM.

As to “LU-165 (small cell lung carcinoma, suspension)”, the AUC came out at 0.954 and the half-maximal inhibitory concentration (IC50) is more than 5.12 µM.

Consider MC116 (B-cell lymphoma, suspension), for which the AUC amounted to 0.803 and the IC50 is 1.73 µM.

Turning to “ME-1 (acute myeloid leukaemia, suspension)”, the AUC turned out to be 0.973 and the half-inhibitory concentration (IC50) is more than 5.12 µM.

For “MEG-01 (chronic myeloid leukaemia, suspension)”, the AUC turned out to be 0.406 and the IC50 is 0.18 µM.

As to MFH-ino (soft tissue, adherent), the AUC was found to be 0.66 and the concentration for half-maximal inhibition (IC50) worked out at 0.971 µM.

As for MHH-NB-11 (neuroblastoma, adherent), the AUC was 0.952 and the IC50 was more than 5.12 µM.

For the cell line “MHH-PREB-1 (B-cell leukaemia, suspension)”, the AUC came to 0.778 and the IC50 turned out to be 1.86 µM.

For the cell line “ML-2 (acute myeloid leukaemia, suspension)”, the AUC was determined as 0.929 and the half-inhibitory concentration (IC50) is more than 5.12 µM.

Turning to MOLP-8 (myeloma, suspension), the AUC was found to be 0.956 and the IC50 is more than 5.12 µM.

Take “MOLT-4 (lymphoblastic leukaemia, suspension)”: the AUC was 0.914 and the IC50 amounted to 5.06 µM.

Turning to “MONO-MAC-6 (acute myeloid leukaemia, suspension)”, the AUC came out at 0.982 and the IC50 was more than 5.12 µM.

As to MRK-nu-1 (breast, suspension), the AUC worked out at 0.851 and the IC50 was found to be 3.43 µM.

On to “MS-1 (small cell lung carcinoma, suspension)”, for which the AUC came out at 0.907 and the concentration for half-maximal inhibition (IC50) is more than 5.12 µM.

In the case of NB17 (neuroblastoma, adherent), the AUC worked out at 0.895 and the IC50 was more than 5.12 µM.

For the cell line “NCI-H64 (small cell lung carcinoma, suspension)”, the AUC came out at 0.996 and the IC50 is more than 5.12 µM.

For “NCI-H69 (small cell lung carcinoma, suspension)”, the AUC was found to be 0.971 and the concentration for half-maximal inhibition (IC50) was more than 5.12 µM.

Compound in a further assay: Cc1ccc(-n2nc(C(C)(C)C)cc2NC(=O)Nc2ccc(OCCN3CCOCC3)c3ccccc23)cc1 [BIRB 0796]
The description is as above. As to conditions: top dose 10 µM; top dose inferred. As for the experimental part: as §1
With “LAMA-84 (chronic myeloid leukaemia, suspension)”, the AUC was 0.97 and the IC50 was more than 10 µM.

On to “LC4-1 (lymphoblastic leukaemia, suspension)”, for which the AUC came to 0.978 and the IC50 is more than 10 µM.

For the cell line “LOUCY (T-cell lymphoblastic leukaemia, suspension)”, the AUC came out at 0.988 and the IC50 was more than 10 µM.

As for LS-411N (large intestine, adherent), the AUC was 0.969 and the concentration for half-maximal inhibition (IC50) is more than 10 µM.

For the cell line “LU-134-A (small cell lung carcinoma, suspension)”, the AUC came out at 0.977 and the IC50 was more than 10 µM.

As for “LU-139 (small cell lung carcinoma, suspension)”, the AUC stood at 0.979 and the half-inhibitory concentration (IC50) was more than 10 µM.

As for “LU-165 (small cell lung carcinoma, suspension)”, the AUC is 0.988 and the IC50 is more than 10 µM.

As to MC116 (B-cell lymphoma, suspension), the AUC was 0.999 and the IC50 was more than 10 µM.

In the case of “ME-1 (acute myeloid leukaemia, suspension)”, the AUC turned out to be 0.988 and the concentration for half-maximal inhibition (IC50) is more than 10 µM.

In the case of “MEG-01 (chronic myeloid leukaemia, suspension)”, the AUC is 0.968 and the half-inhibitory concentration (IC50) is more than 10 µM.

In the case of MFH-ino (soft tissue, adherent), the AUC was 0.97 and the IC50 is more than 10 µM.

Regarding MHH-NB-11 (neuroblastoma, adherent), the AUC was determined as 0.984 and the IC50 was more than 10 µM.

For “MHH-PREB-1 (B-cell leukaemia, suspension)”, the AUC stood at 0.987 and the IC50 was more than 10 µM.

On to “ML-2 (acute myeloid leukaemia, suspension)”, for which the AUC was 0.99 and the IC50 is more than 10 µM.

For the cell line MOLP-8 (myeloma, suspension), the AUC is 0.97 and the IC50 is more than 10 µM.

With “MOLT-4 (lymphoblastic leukaemia, suspension)”, the AUC was determined as 0.99 and the IC50 was more than 10 µM.

For “MONO-MAC-6 (acute myeloid leukaemia, suspension)”, the AUC worked out at 0.983 and the IC50 was more than 10 µM.

In the case of MRK-nu-1 (breast, suspension), the AUC stood at 0.99 and the IC50 was more than 10 µM.

For “MS-1 (small cell lung carcinoma, suspension)”, the AUC was 0.982 and the half-maximal inhibitory concentration (IC50) was more than 10 µM.

Consider NB17 (neuroblastoma, adherent), for which the AUC was found to be 0.972 and the IC50 was more than 10 µM.

Regarding “NCI-H64 (small cell lung carcinoma, suspension)”, the AUC is 0.992 and the IC50 was more than 10 µM.

On to “NCI-H69 (small cell lung carcinoma, suspension)”, for which the AUC is 0.984 and the IC50 is more than 10 µM.

Source of the values: the supplement of paper PMC4967469.
